Positions count from the first letter of the chain named. This is one part of the list.

The labels stand for the following.
B1: chr10:128108355:128108456:-|CDS|ENSG00000148773|msi1|FALSE|unique (ssRNA)
RNA: GGGAGUUCUACAGUCCGACGAUCAGUGGACACUCCAACAAGCACAAAGCAAUGGCCUAAGAGAAGUCUCAGGAAAGCAGAUGUAGAGGAAGAAUUCUUAGCACUCAGGAAACUAACACCAUCAGCAGGGAAAGCCAUGCUUACCAACAGAGGAUUGAGCAUCA
B2: chr7:130192614:130192715:-|CDS|ENSG00000146842|msi1|total|mutant (ssRNA)
RNA: GGGAGUUCUACAGUCCGACGAUCUACAUGACCGACCUACGAACUUUGGAUACUUUUCUCAGAAGUGAAGAGGAGAAACAGCACCGGGUUAAGCUGGGUACAUAUAUAUUUCUGUAUAUCUACUAUACAUAUUUUUGGUGUCAACAACAGAGGAUUGAGCAUCA
B3: chr7:5527443:5527567:-|3pUTR|ENSG00000075624|msi1_unk|total|mutant (ssRNA)
RNA: GGGAGUUCUACAGUCCGACGAUCCAUCCCCCAAAGUUCACAAUGUGGCCGAGGACUUUGAUUGCACAUUGUUGUUUUUUUAACCGUCAUUCCAAAUAUGAGAUGCGUUGUUACAGGAAGUCCCUUGCCAUCCUAAAAGCCACCCAACAGAGGAUUGAGCAUCA
B4: chr22:35662008:35662068:+|3pUTR|ENSG00000221963|msi1_unk|FALSE|overlapping (ssRNA)
RNA: GGGAGUUCUACAGUCCGACGAUCUGAGCAACUUUUAAUUAUUCUCCUGUCCUGCAAUAUGAGUUAAUCUUCUCUGAUCGAUGUAGAUUCCAGGAAGGGGUGUCCAGGACAAUUACCUUCCUUCUGGAGAAACUUCCCUUAAUCCAACAGAGGAUUGAGCAUCA
B5: ENSG00000107863:be:win_1851|CDS|ENSG00000107863|bound_else_gene|NA|bound_elsewhere_windowed (ssRNA)
RNA: GGGAGUUCUACAGUCCGACGAUCUCUUGUGAAAGUCCGAAGUAAUUCUCUGAAAGCUCCUUCCACGCAUGUCACAAAACCAUCAUUUAGCCAGAAAUCAUUUGUUUCUAUCAAAGACCAAAGACCAGUAAAUCACUUGCAUCACAACAGAGGAUUGAGCAUCA
B6: chr3:197282668:197282805:-|CDS|ENSG00000075711|msi1|total|mutant (ssRNA)
RNA: GGGAGUUCUACAGUCCGACGAUCUGGGAGAUUUCCAGCCUUCCAAGCUCUACUGUGACUUCAGAGACACUGCCAAGCAGCCUCCGCCCCCGUGCCGAGGUGAGAUAAAAAAUGUGUUCUGAAGCUGUUUUUUGGUGAUCAAUUCAACAGAGGAUUGAGCAUCA
B7: chr3:170392585:170392686:+|3pUTR|ENSG00000136603|msi1|total|mutant (ssRNA)
RNA: GGGAGUUCUACAGUCCGACGAUCUACAUUUUCCAAAUGAAUGAAAAUGUAUGUUUCUUUGUACUUUUUUAAAAAAAUCAGCUCCGUAACAAUACUAUAUGGUUUCAACCCGCCGGUAAUCUGCUUAUAUUUCUAAUGCAAACUCAACAGAGGAUUGAGCAUCA
B8: chr11:18297563:18297669:-|CDS|ENSG00000110756|unk|FALSE|unique (ssRNA)
RNA: GGGAGUUCUACAGUCCGACGAUCGAUCUAAUUUCUCAACUGGAAGAAUUGAUCUUAAAAUUUGAACCUUUGGAUUCAGCUUGUAGCAGUAGAAGAAGCUCCAUUUCAUCACAUGUAAGUAUUCUCACCUUUAAAGGAUUUUGUCAACAGAGGAUUGAGCAUCA
B9: chr4:76435395:76435496:+|5pUTR|ENSG00000138771|msi1|total|mutant (ssRNA)
RNA: GGGAGUUCUACAGUCCGACGAUCUUUUCUCUCCUAAGAAACAAACUAUGAACUGAUUGUUGAAAAAAAGAAGUAAAAAGUUUCCGCACAGCUUCUCUGUCUCUUCGGGACAAGUCCGAAAAUUCUGAAGUGAGCCGAAGCAUACAACAGAGGAUUGAGCAUCA
B10: ENSG00000136451:be:win_4101|3pUTR|ENSG00000136451|bound_else_gene|NA|bound_elsewhere_windowed (ssRNA)
RNA: GGGAGUUCUACAGUCCGACGAUCGUCUUGGAACUGGAAUUGAGUUUCGAUGUUGAUGAACUGAUUCAACCAGGUGUUGAAGGCACGACAGCCACUGCUCUACGAAAAGGCAGAGUACGUUUUUCCCUUCUGGUUGUAACCUGGCAACAGAGGAUUGAGCAUCA
B11: chr1:150220393:150220494:-|3pUTR|ENSG00000143401|msi1_unk|FALSE|overlapping (ssRNA)
RNA: GGGAGUUCUACAGUCCGACGAUCAUUGUAUGUAGAGAAAAAUUUUCAUUGACUCCCAUUGUGGAAUUCCCUAGCAAUUUAUUUAGACUUAAUUUUUUAAAUUCAAGCUUACUGUAUUAGUCAUUUUUAGCCCAUAAUUAAAACCAACAGAGGAUUGAGCAUCA
B12: chr2:182777146:182777247:+|3pUTR|ENSG00000077232|msi1|total|mutant (ssRNA)
RNA: GGGAGUUCUACAGUCCGACGAUCUGAAGAUGAAGAAAAAGUUUAAAAGAAAUUCUGACAGAUGACAUCAGAAGACACCUAUUCCGAAUGUUACAUUUAUGAUGGGAAUGAAUGAACAUUAUCUCCGACUUGCAGUUGUACUGCCAACAGAGGAUUGAGCAUCA
B13: chr11:59829272:59829545:-|three_prime_utr|ENSG00000134812|control|control|control (ssRNA)
RNA: GGGAGUUCUACAGUCCGACGAUCAAAAAGCGAAUGCCUGUGAUGCUACCAUAUUCCUGGUAAAAACAUGGAGAACCACUAUGUAGAAUAAAAAUGCAAAGUUCACUGGAGUCUCAACAUCUAUGACUCAUGAAAAUAAAAUUUCAACAGAGGAUUGAGCAUCA
B14: ENSG00000139428:stop:overlap|stop_codon|ENSG00000139428|stop_codon|NA|stop_codon (ssRNA)
RNA: GGGAGUUCUACAGUCCGACGAUCUAUUACUAUUCUUAACACUUACCUGUUCCUGGCUACCAUUUCUCCAUGGCGGGCCUGACUAGGUUUGCUCUGGAAUUAGUCACAGAAAAGGGCCAUACAUUUGCCGAAGAGCUUCAGAAACAACAGAGGAUUGAGCAUCA
B15: chr22:35662008:35662068:+|3pUTR|ENSG00000221963|msi1_unk|total|mutant (ssRNA)
RNA: B4 RNA with U83C, A84C
B16: chr1:15430058:15430159:+|3pUTR|ENSG00000142634|msi1|total|mutant (ssRNA)
RNA: GGGAGUUCUACAGUCCGACGAUCCCUGGAAGCUACGCGGACUUGCAGAGGUUUUAUUUUUUGGCCUCCGAAUCUGCAGAAAUCCGGAGGCACCGAGCCCAGCGCAGCAGCCUCGGACCCGGAUUGCGUUUGCCUCCGCGGAUACAACAGAGGAUUGAGCAUCA
B17: chr1:109313209:109313310:-|3pUTR|ENSG00000134243|msi1|FALSE|unique (ssRNA)
RNA: GGGAGUUCUACAGUCCGACGAUCCAGGGCAAUAUUUUUAACUUGGGGCAGGAAGAAGGGAGCAGCAGAGAAUUGACUAGAUAUAGCACCUAUUAAAAGAGAACUCUUGCUUCUUCUGAGAUUUUUCAAGCUGUGCUUUGUGUGCAACAGAGGAUUGAGCAUCA
B18: chr6:125889563:125889680:+|CDS|ENSG00000111912|unk|FALSE|unique (ssRNA)
RNA: GGGAGUUCUACAGUCCGACGAUCCAAGCAGUCUGGUUCGCCAGAAAGCCGAGUAGAAAACACACUGAACAUACAUGAAGAUUUAGAUAAAGUUAAACUCAUUGAAUAUUACCUGACUAAGAACAAAGAAGGGCCACAGGUAUCCAACAGAGGAUUGAGCAUCA
B19: chr9:125437660:125437767:-|3pUTR|ENSG00000119487|unk|total|mutant (ssRNA)
RNA: GGGAGUUCUACAGUCCGACGAUCUGAUGUCCUUACUGUCCCCAGCCAGGGCCGGGGACCGGUGUUUCACUGAGGACCUGCAUCCGAAACAUUUUUUAAAUUGUUGUACAGGAAGAGAUGUGUCUAAAACAGCAUCUUAAAGCUCAACAGAGGAUUGAGCAUCA
B20: chr1:109062750:109062855:-|3pUTR|ENSG00000197780|unk|FALSE|unique (ssRNA)
RNA: GGGAGUUCUACAGUCCGACGAUCGCUUUCAGUAGCAGGAAUGGCAUUGUUUAAAAAGCUGAUGGCAGGGUAAGCAUUUGGGUUAGUGUUUUAUUAACAUAUUUGUAAGUACUUGUUCAUUGUGGAAAUGUGUCCUUGACUAAACAACAGAGGAUUGAGCAUCA
B21: chr14:22906194:22906368:-|CDS|ENSG00000100461|control|control|control (ssRNA)
RNA: GGGAGUUCUACAGUCCGACGAUCAGCCGAAGUCCAGGUCGGCAGUGUCGUCACCGUAGCCGUAGCUGGGAUCGUCGACAUGGUAGUGAGUCGCGAAGUCGGGACCAUCGUCGUGAGGAUCGUGUGCAUUACAGGAGUCCUCCACAACAGAGGAUUGAGCAUCA
B22: chr9:69711526:69711627:-|3pUTR|ENSG00000188647|unk|total|mutant (ssRNA)
RNA: GGGAGUUCUACAGUCCGACGAUCGAACUGCUGCCGUCUUCUGCAAUCAGUCUCUGUAUUGGUAUAUCCAGUACUAUCGGGUUCCGGUUCUUUUUAUUUUUCCUUAAAUCUUACUUGUUUCCCGCGUCUUAAGAGUGGUAAUGGCAACAGAGGAUUGAGCAUCA

The assay addresses MSI1 full-length (mouse, UniProt Q61474 1-362). The assay can be described thus: nsRBNS (natural sequence RNA bind-n-seq); RBNS binding buffer (assumed for nsRBNS): 25 mM Tris pH 7.5, 150 mM KCl, 3 mM MgCl2, 0.01% Triton X-100, 500 ug/ml BSA, 20 U/ml SUPERase-In, 4 C; UNK is unkempt and MSI1 is Musashi-1; names of the RNAs are library labels; protein concentration not given here; high values mean tight binding.
Sequence of UniProt Q61474 (Q61474 whole entry): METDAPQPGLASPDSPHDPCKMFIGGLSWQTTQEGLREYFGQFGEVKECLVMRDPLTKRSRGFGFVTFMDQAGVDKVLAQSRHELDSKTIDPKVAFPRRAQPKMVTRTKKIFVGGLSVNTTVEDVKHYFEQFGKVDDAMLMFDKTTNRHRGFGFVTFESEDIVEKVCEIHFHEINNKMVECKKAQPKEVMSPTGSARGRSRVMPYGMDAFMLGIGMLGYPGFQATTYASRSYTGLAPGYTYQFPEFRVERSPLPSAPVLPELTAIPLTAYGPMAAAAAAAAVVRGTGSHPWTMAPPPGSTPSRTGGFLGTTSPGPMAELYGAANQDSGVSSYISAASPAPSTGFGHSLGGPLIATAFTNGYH
B1 had a binding signal of 0.872 enrichment R.

For B2, the binding signal was 0.38 enrichment R.

B3 yielded a binding signal of 0.408 enrichment R.

As to B4, the binding signal stood at 0.305 enrichment R. The figure for B5 is 1.64 enrichment R; for B6 it is 0.329 enrichment R. For B7 the value was 0.822 enrichment R; for B8, 2.3 enrichment R; for B9, 0.234 enrichment R. The figure for B10 is 0.402 enrichment R; for B11 it is 61.8 enrichment R.

Regarding B12, the binding signal was 0.289 enrichment R. Molecule B13 yielded a binding signal of 0.42 enrichment R. The figure for B14 is 18.8 enrichment R. In turn, B15 displayed a binding signal of 0.383 enrichment R. For B16 the value was 0.342 enrichment R; for B17, 1.37 enrichment R. For B18, the binding signal is 2.02 enrichment R.

B19 showed a binding signal of 0.291 enrichment R.

For the molecule B20, the binding signal was 0.742 enrichment R. For B21 the value was 0.816 enrichment R; for B22, 0.401 enrichment R.
